Experimental data published in the supplement of paper PMC3334620.
The full ranking holds about 33,000 sequences; the median of “E-score (-0.5 to 0.5)” is about -0.017, and the highest 2% start at about 0.3. Some of the results follow.

Target: T1, Sut1 (UniProt P53032)
T1 sequence: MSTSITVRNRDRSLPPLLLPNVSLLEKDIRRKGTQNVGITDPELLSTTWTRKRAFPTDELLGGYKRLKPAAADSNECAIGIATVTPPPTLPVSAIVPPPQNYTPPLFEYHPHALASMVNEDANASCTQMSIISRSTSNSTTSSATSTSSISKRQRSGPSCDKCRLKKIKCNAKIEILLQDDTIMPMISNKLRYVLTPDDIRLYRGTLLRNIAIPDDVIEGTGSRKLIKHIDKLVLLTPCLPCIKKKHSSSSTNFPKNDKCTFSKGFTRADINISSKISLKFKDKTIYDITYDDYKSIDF
Experiment: PBM E-score (8-mer binding enrichment) (E-score (-0.5 to 0.5)); higher = stronger / more preferred TF binding; most listed sequences are background and not binding sites
Conditions: protein concentration: 200 nM; construct: GST-full length
Method in brief: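 For each ungapped eight-base word taken together with its reverse complement, the Universal PBM Analysis Suite assigned an E-score. Binding data came from GST-tagged yeast transcription factors, applied at about 100-200 nM, on universal all-10-mer Agilent arrays made double-stranded by primer extension. Fluorescent anti-GST marked bound protein, and scans were normalised with masliner.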

Q: For CCGCAAAC, which “PBM E-score” value is on record?
A: The value was -0.0863.

Q: For GGGCAACC, which “PBM E-score” value is on record?
A: The value was -0.158.

Q: Which “PBM E-score” value does the source give for ACTTGTAT here?
A: Its value is 0.102.

Q: Which “PBM E-score” value does the source give for ACACTATG here?
A: Its value is 0.0863.

Q: Which “PBM E-score” value does the source give for AGCTCAAG here?
A: The value was -0.092.

Q: How did the “PBM E-score” value turn out when CTTGAAAG was run?
A: Its value is 0.02.

Q: Which “PBM E-score” value does the source give for CTATAGGC here?
A: Its value is -0.222.

Q: Which “PBM E-score” value does the source give for GCGCGAGC here?
A: Its value is -0.15.

Q: With CCACCGAG as the sequence, how does the “PBM E-score” value read?
A: Its value is -0.164.

Q: With GTGGACAC as the sequence, how does the “PBM E-score” value read?
A: The value was -0.0681.

Q: CCCCATAG was tested. Which “PBM E-score” value did it give?
A: Its value is -0.173.

Q: Which “PBM E-score” value does the source give for CAACAATG here?
A: The value was 0.0583.

Q: With CGTTCCCA as the sequence, how does the “PBM E-score” value read?
A: Its value is -0.146.

Q: With CATATTTC as the sequence, how does the “PBM E-score” value read?
A: Its value is -0.0077.

Q: CCGATTGC was tested. Which “PBM E-score” value did it give?
A: Its value is 0.109.

Q: AGCATCAG was tested. Which “PBM E-score” value did it give?
A: Its value is -0.0528.

Q: With ATAGTCCA as the sequence, how does the “PBM E-score” value read?
A: The value was 0.0136.

Q: With ATCAATCC as the sequence, how does the “PBM E-score” value read?
A: Its value is 0.108.

Q: For CCGTCGAA, which “PBM E-score” value is on record?
A: The value was 0.0383.

Q: How did the “PBM E-score” value turn out when AAATATTA was run?
A: The value was 0.227.

Q: How did the “PBM E-score” value turn out when ACGAGGTA was run?
A: The value was 0.0273.

Q: How did the “PBM E-score” value turn out when CGTAACTC was run?
A: The value was -0.0052.

Q: AGGTTCAT was tested. Which “PBM E-score” value did it give?
A: The value was -0.216.

Q: How did the “PBM E-score” value turn out when CCGCGTGC was run?
A: Its value is 0.00164.

Q: Which “PBM E-score” value does the source give for CATACCAC here?
A: The value was -0.0444.

Q: With CACATGGC as the sequence, how does the “PBM E-score” value read?
A: The value was -0.114.

Q: How did the “PBM E-score” value turn out when GATTAAAA was run?
A: The value was 0.223.

Q: Which “PBM E-score” value does the source give for AGAAGACC here?
A: The value was -0.149.

Q: Which “PBM E-score” value does the source give for CTACACGC here?
A: Its value is -0.313.

Q: Which “PBM E-score” value does the source give for CTGTACTA here?
A: The value was 0.112.

Q: With ACAAATGG as the sequence, how does the “PBM E-score” value read?
A: Its value is 0.0989.

Q: For AAGTTACA, which “PBM E-score” value is on record?
A: The value was -0.00447.

Q: With AGTCGCGA as the sequence, how does the “PBM E-score” value read?
A: The value was 0.139.

Q: For TAGTGTGA, which “PBM E-score” value is on record?
A: Its value is 0.0274.

Q: AGCTATCC was tested. Which “PBM E-score” value did it give?
A: Its value is -0.181.

Q: For CCCGAGGC, which “PBM E-score” value is on record?
A: Its value is -0.226.

Q: How did the “PBM E-score” value turn out when ACGGGTTA was run?
A: Its value is -0.172.

Q: CCAACTCG was tested. Which “PBM E-score” value did it give?
A: The value was -0.141.

Q: How did the “PBM E-score” value turn out when ATGCCAAG was run?
A: The value was -0.0519.

Q: With GTACACTA as the sequence, how does the “PBM E-score” value read?
A: Its value is -0.06.

Q: Which “PBM E-score” value does the source give for TCCATAGA here?
A: Its value is 0.00973.

Q: Which “PBM E-score” value does the source give for CCTGCCGA here?
A: Its value is -0.085.

Q: Which “PBM E-score” value does the source give for CTATGGCC here?
A: Its value is -0.141.

Q: CCCGGGAC was tested. Which “PBM E-score” value did it give?
A: Its value is 0.00314.

Q: How did the “PBM E-score” value turn out when CTTGTGTC was run?
A: The value was -0.0867.

Q: Which “PBM E-score” value does the source give for TCACAAAA here?
A: The value was 0.185.

Q: With AGCACGGA as the sequence, how does the “PBM E-score” value read?
A: Its value is 0.292.

Q: CCCTGGAA was tested. Which “PBM E-score” value did it give?
A: Its value is -0.272.

Q: How did the “PBM E-score” value turn out when CGTTGTCC was run?
A: The value was 0.11.

Q: For ACGTATCC, which “PBM E-score” value is on record?
A: The value was -0.251.

Q: Which “PBM E-score” value does the source give for TGGATAAA here?
A: Its value is 0.263.

Q: How did the “PBM E-score” value turn out when ACACACCC was run?
A: Its value is -0.137.

Q: With ACCTCACA as the sequence, how does the “PBM E-score” value read?
A: The value was -0.0658.

Q: CACCGCGG was tested. Which “PBM E-score” value did it give?
A: Its value is 0.146.

Q: How did the “PBM E-score” value turn out when ACCTCGAG was run?
A: The value was 0.0831.

Q: CATTATTA was tested. Which “PBM E-score” value did it give?
A: Its value is 0.216.

Q: With CGGACCGA as the sequence, how does the “PBM E-score” value read?
A: The value was 0.244.

Q: Which “PBM E-score” value does the source give for CCTTAAAC here?
A: Its value is -0.059.

Q: How did the “PBM E-score” value turn out when GAGTCTCA was run?
A: The value was -0.00234.

Q: With AGACATTA as the sequence, how does the “PBM E-score” value read?
A: Its value is 0.0395.

Q: How did the “PBM E-score” value turn out when TGGGGACA was run?
A: Its value is -0.0716.

Q: With ATTGTGAA as the sequence, how does the “PBM E-score” value read?
A: Its value is 0.164.

Q: Which “PBM E-score” value does the source give for CAAAGGCG here?
A: The value was -0.247.

Q: With GCAAGGTA as the sequence, how does the “PBM E-score” value read?
A: Its value is -0.00579.

Q: How did the “PBM E-score” value turn out when GGATACAA was run?
A: The value was 0.0825.

Q: With CCTATGAA as the sequence, how does the “PBM E-score” value read?
A: The value was -0.202.

Q: CAGCCCCA was tested. Which “PBM E-score” value did it give?
A: The value was -0.231.

Q: How did the “PBM E-score” value turn out when CAAGATCA was run?
A: Its value is -0.0348.

Q: Which “PBM E-score” value does the source give for ACCCCACC here?
A: The value was -0.072.

Q: For AAATCCCT, which “PBM E-score” value is on record?
A: Its value is 0.0459.

Q: For ATAATCTG, which “PBM E-score” value is on record?
A: The value was 0.0727.

Q: For AGGATCAA, which “PBM E-score” value is on record?
A: The value was 0.126.

Q: Which “PBM E-score” value does the source give for CGACTCAG here?
A: The value was -0.0587.

Q: For ACTTACTA, which “PBM E-score” value is on record?
A: Its value is 0.118.

Q: For ATACCCCA, which “PBM E-score” value is on record?
A: The value was -0.13.

Q: CTTTCTAA was tested. Which “PBM E-score” value did it give?
A: Its value is 0.17.

Q: AATCTGGA was tested. Which “PBM E-score” value did it give?
A: Its value is -0.0446.

Q: With AGCGGCTC as the sequence, how does the “PBM E-score” value read?
A: The value was -0.00165.

Q: Which “PBM E-score” value does the source give for AATACATC here?
A: The value was 0.159.

Q: Which “PBM E-score” value does the source give for CCGGATAC here?
A: The value was 0.104.

Q: Which “PBM E-score” value does the source give for GGCCATAA here?
A: Its value is -0.114.

Q: CGAACGAG was tested. Which “PBM E-score” value did it give?
A: The value was -0.0896.

Q: How did the “PBM E-score” value turn out when GTCGTTGA was run?
A: The value was -0.0946.

Q: Which “PBM E-score” value does the source give for CCATTAGG here?
A: The value was -0.249.

Q: Which “PBM E-score” value does the source give for GGCGGCCC here?
A: The value was -0.177.

Q: With AACATTCA as the sequence, how does the “PBM E-score” value read?
A: Its value is 0.0304.

Q: Which “PBM E-score” value does the source give for CGAGAGAG here?
A: The value was 0.024.

Q: AATACGAC was tested. Which “PBM E-score” value did it give?
A: Its value is -0.0431.

Q: AAGGTACG was tested. Which “PBM E-score” value did it give?
A: The value was -0.0345.

Q: How did the “PBM E-score” value turn out when ACTTTGGG was run?
A: The value was -0.00343.

Q: With GTGAATGA as the sequence, how does the “PBM E-score” value read?
A: Its value is 0.123.

Q: Which “PBM E-score” value does the source give for CAGACTGC here?
A: The value was -0.135.

Q: Which “PBM E-score” value does the source give for AACCCCTA here?
A: The value was -0.206.

Q: With GCCAGCGC as the sequence, how does the “PBM E-score” value read?
A: Its value is -0.186.
